The values that follow come from US20260055169A1 (PARAGON THERAPEUTICS, published 2026).

Assay [1] deals with T1, Recombinant cynomolgus serum albumin (cynomolgus, UniProt A2V9Z4 25-608).
T1 construct: Analyte in SPR
In words: SPR Biacore 8K, VHH-Fc captured by anti-human Fc, albumin injected, pH 6.0, 25 C. Background: SPR reads the build-up and loss of mass on a sensor chip optically.

Assay [2] addresses T2, Recombinant human serum albumin (human, UniProt P02768).
T2 construct: Analyte in SPR
The description is as above.

Assay [3] concerns the target T1, Recombinant cynomolgus serum albumin. In words: SPR Biacore 8K, VHH-Fc captured by anti-human Fc, albumin injected, pH 7.4, 25 C.
Assay [4] addresses T2, Recombinant human serum albumin. The assay is described as above.
The target of assay [5] is T3, Recombinant human serum albumin (human, UniProt P02768).
T3 construct: Analyte in SPR, 0-500 nM
In words: SPR, Fc-VHH captured on anti-human Fc, human albumin as analyte, pH 7.4.

In assay [6] the target is T3, Recombinant human serum albumin. In words: SPR, Fc-VHH captured on anti-human Fc, human albumin as analyte, pH 6.0.
Assay [7] has the same target. In words: SPR, VHH-Fc captured on anti-human Fc, human albumin as analyte, pH 6.0.

Changes are numbered by the printed parent chain. Names and notes keep the numbering of the source.

T1 sequence (A2V9Z4 25-608 limits assumed): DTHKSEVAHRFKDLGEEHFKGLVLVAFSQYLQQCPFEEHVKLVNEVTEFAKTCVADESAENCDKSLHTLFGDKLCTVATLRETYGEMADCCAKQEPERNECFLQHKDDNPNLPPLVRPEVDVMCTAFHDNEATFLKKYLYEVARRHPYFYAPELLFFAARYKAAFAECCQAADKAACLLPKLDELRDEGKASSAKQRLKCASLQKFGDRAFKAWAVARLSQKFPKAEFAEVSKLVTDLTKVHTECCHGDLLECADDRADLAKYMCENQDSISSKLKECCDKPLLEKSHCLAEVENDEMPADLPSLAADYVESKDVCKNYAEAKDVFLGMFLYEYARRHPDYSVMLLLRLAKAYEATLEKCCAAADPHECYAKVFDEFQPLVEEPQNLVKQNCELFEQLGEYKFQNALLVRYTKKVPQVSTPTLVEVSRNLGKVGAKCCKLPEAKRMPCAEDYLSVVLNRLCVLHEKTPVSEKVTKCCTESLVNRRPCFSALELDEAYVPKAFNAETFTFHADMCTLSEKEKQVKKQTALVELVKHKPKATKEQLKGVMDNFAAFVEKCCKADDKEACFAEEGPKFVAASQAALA

B1: VHH-Fc fusion control (SEQ ID NO: 33) (Fc fusion)
chain: EVQLLESGGGLVQPGGSLRLSCAASGFTFRSFGMSWVRQAPGKGPEWVSSISGSGSDTLYADSVKGRFTISRDNSKNTLYLQMNSLRPEDTAVYYCTIGGSLSRSSQGTLVTVSSGGGGS[letters of human IgG1 Fc left out]
notes: also called VHH-Fc control; control VHH-Fc
As to B1, the Kd – broadly, the concentration at which binding is half-saturated – in assay [1] was determined as 6.19 nM; in assay [2] it was 3.58 nM; in assay [3], 13.8 nM; in assay [4], 12.1 nM.

B2: Fc-VHH 1 fusion (SEQ ID NO: 34) (Fc fusion)
chain: [letters of human IgG1 Fc left out]GGGSQVQLVESGGGLVQPGGSLRLSCAASGFTFGQFGMSWVRQAPAKGPERVSAISSDGSGTIYADSVKGRFTISRDNAKNTLYLQMNSLKPEDTAVYYCTIGSSTTPSGPGQGTQVTVSS
In the case of B2, in assay [5], the Kd is 36.8 nM; the off-rate constant (koff) – broadly, a measure of how fast the partners let go of each other – was determined as 0.00961 s⁻¹; the kon (as a rule, the second-order rate constant of association) was found to be 261000 M⁻¹ s⁻¹. Besides, in assay [6], the Kd was 65.7 nM, the dissociation rate constant (koff) turned out to be 0.0194 s⁻¹ and the kon was 295000 M⁻¹ s⁻¹.

B3: Fc-VHH 1-5 fusion (SEQ ID NO: 39) (Fc fusion)
chain: [letters of human IgG1 Fc left out]GGGSQVQLVESGGGLVQPGGSLRLSCAASGFTFGQFGMSWVRQAPAKGPERVSAISSDASGTIYADSVKGRFTISRDNAKNTLYLQMNSLKPEDTAVYYCTIGSSTTPSGPGQGTQVTVSS
As to B3, in assay [5], the Kd came out at 90.7 nM, the koff was determined as 0.00778 s⁻¹ and the on-rate constant (kon) is 85800 M⁻¹ s⁻¹. Also, in assay [6], the equilibrium dissociation constant (Kd) was found to be 106 nM, the off-rate (koff) amounted to 0.0167 s⁻¹ and the association rate constant (kon) was 157000 M⁻¹ s⁻¹.

B4: Fc-VHH 1-6 fusion (SEQ ID NO: 40) (Fc fusion)
chain: [letters of human IgG1 Fc left out]GGGSQVQLVESGGGLVQPGGSLRLSCAASGFTFGQFGMSWVRQAPAKGPERVSAISSDSSGTIYADSVKGRFTISRDNAKNTLYLQMNSLKPEDTAVYYCTIGSSTTPSGPGQGTQVTVSS
Take B4: in assay [5], the Kd amounted to 71.6 nM, the koff was found to be 0.00403 s⁻¹ and the on-rate (kon) was found to be 56300 M⁻¹ s⁻¹. Besides, in assay [6], the dissociation constant Kd was determined as 82.7 nM, the dissociation rate constant (koff) came to 0.00598 s⁻¹ and the kon worked out at 72200 M⁻¹ s⁻¹.

B5: Fc-VHH 1-1 fusion (SEQ ID NO: 35) (Fc fusion)
chain: [letters of human IgG1 Fc left out]GGGSEVQLLESGGGLVQPGGSLRLSCAASGFTFGQFGMSWVRQAPGKGPERVSAISSDGSGTIYADSVKGRFTISRDNSKNTLYLQMNSLRPEDTAVYYCTIGSSTTPSGPGQGTLVTVSS
As to B5, in assay [5], the Kd stood at 149 nM, the koff was 0.0213 s⁻¹ and the kon was found to be 143000 M⁻¹ s⁻¹. Besides, in assay [6], the dissociation constant (Kd) stood at 203 nM, the off-rate constant (koff) came to 0.0143 s⁻¹ and the kon is 70500 M⁻¹ s⁻¹.

B6: VHH 1-9-Fc fusion (SEQ ID NO: 31) (Fc fusion)
chain: EVQLVESGGGLVQPGGSLRLSCAASGFTFGQFGMSWFRQAPGKEREFVSAISSDGSGTIYADSVKGRFTISRDNSKNTLYLQMNSLRAEDTAVYYCTIGSSTTPSGWGQGTTVTVSSGGGGS[letters of human IgG1 Fc left out]
B6: the binding result in assay [7] is listed as “no binding (tested: 500 nM)”.

B7: VHH 1-10-Fc fusion (SEQ ID NO: 32) (Fc fusion)
chain: B6 chain with W107P
As to B7, in assay [7], the dissociation constant (Kd) was 24 nM, the dissociation rate constant (koff) worked out at 0.01 s⁻¹ and the kon worked out at 416000 M⁻¹ s⁻¹.

B8: VHH 13 - G4S - wild-type IgG1 Fc fusion (VHH-Fc fusion, SEQ ID NO: 154) (Fc fusion)
chain: EVQLVESGGGLVQAGGSLRLSCAASGFTFGSFGMSWVRQVPGKGPEWVSAIDSGGTDTRYAESIKGRFIISRDNAKKTLYLQMNSLKPEDTAVYYCTIGQSTSRGSQGTQVTVSSGGGGS[letters of human IgG1 Fc left out]
In the case of B8, the dissociation constant (Kd) in assay [1] stood at 20.2 nM; in assay [2] it was 8.46 nM; in assay [3], 40.9 nM; in assay [4], 22.5 nM. Further, the koff in assay [1] stood at 0.00167 s⁻¹; in assay [2], 0.000915 s⁻¹. Further, the association rate constant (kon) in assay [1] came out at 82500 M⁻¹ s⁻¹; in assay [2], 108000 M⁻¹ s⁻¹.

B9: VHH 20 - G4S - wild-type IgG1 Fc fusion (VHH-Fc fusion, SEQ ID NO: 161) (Fc fusion)
chain: B8 chain with E1Q, A14P, V40A, S53G, T56A, I64V, I69T, Q100G
As for B9, the dissociation constant Kd in assay [1] worked out at 36.8 nM; in assay [2], 19.8 nM; in assay [3] it was 80.7 nM; in assay [4], 55.4 nM. Also, the off-rate (koff) in assay [1] stood at 0.00385 s⁻¹; in assay [2], 0.00294 s⁻¹. Moreover, the kon amounted to 104000 M⁻¹ s⁻¹ in assay [1] and 149000 M⁻¹ s⁻¹ in assay [2].

B10: VHH 22 - G4S - wild-type IgG1 Fc fusion (VHH-Fc fusion, SEQ ID NO: 163) (Fc fusion)
chain: B8 chain with E1Q, V40A, T56V, I64V, I69T
In the case of B10, the dissociation constant Kd in assay [1] is 36.3 nM; in assay [2], 20.9 nM; in assay [3], 51.5 nM; in assay [4] it was 28.8 nM. The koff is 0.00214 s⁻¹ in assay [1] and 0.00129 s⁻¹ in assay [2]. For the same molecule, the values for the association rate constant (kon) in assay [1] and in assay [2] were 59200 M⁻¹ s⁻¹ and 61800 M⁻¹ s⁻¹, respectively.

B11: VHH 14 - G4S - wild-type IgG1 Fc fusion (VHH-Fc fusion, SEQ ID NO: 155) (Fc fusion)
chain: B8 chain with E1Q, A14P, V40A, T56G, I64V, I69T, Q100R, G105V, S106G
As for B11, the Kd in assay [1] came out at 50.3 nM; in assay [2], 19.3 nM; in assay [3] it was 95.3 nM; in assay [4], 51.6 nM. For the same molecule, the koff amounted to 0.00593 s⁻¹ in assay [1] and 0.00269 s⁻¹ in assay [2]. The values for the kon in assay [1] and in assay [2] were 118000 M⁻¹ s⁻¹ and 139000 M⁻¹ s⁻¹, respectively.

B12: VHH 21 - G4S - wild-type IgG1 Fc fusion (VHH-Fc fusion, SEQ ID NO: 162) (Fc fusion)
chain: B8 chain with E1Q, A14P, T28S, V40A, T56A, S63T, I64V, I69T, Q100R
As to B12, the dissociation constant (Kd) in assay [1] came to 47.4 nM; in assay [2] it was 19.7 nM; in assay [3], 99 nM; in assay [4], 53.7 nM. Also, the koff in assay [1] is 0.00662 s⁻¹; in assay [2] it was 0.00284 s⁻¹. Also, the kon came out at 140000 M⁻¹ s⁻¹ in assay [1] and 144000 M⁻¹ s⁻¹ in assay [2].

B13: VHH 16 - G4S - wild-type IgG1 Fc fusion (VHH-Fc fusion, SEQ ID NO: 157) (Fc fusion)
chain: B8 chain with A14P, V40A, T56A, I64V, I69T, S85N, V93M, Q100R
B13: the dissociation constant Kd stood at 50.5 nM in assay [1], 20.2 nM in assay [2], 102 nM in assay [3] and 53.2 nM in assay [4]. The koff turned out to be 0.00695 s⁻¹ in assay [1] and 0.00312 s⁻¹ in assay [2]. In addition, the kon in assay [1] stood at 138000 M⁻¹ s⁻¹; in assay [2], 155000 M⁻¹ s⁻¹.

B14: VHH 17 - G4S - wild-type IgG1 Fc fusion (VHH-Fc fusion, SEQ ID NO: 158) (Fc fusion)
chain: QVQLQESGGGLVQPGDSLRLSCAASGFTFGSFGMSWVRQAPGREPEWVSAIDSGGADTRYAESVKGRFTISRDNAKKTLYLQMNTLKPEDTAVYYCTIGRSTSRGSQGTQVTVSSGGGGS[letters of human IgG1 Fc left out]
In the case of B14, the Kd in assay [1] is 39.8 nM; in assay [2], 14.2 nM; in assay [3] it was 82 nM; in assay [4], 43.9 nM. In addition, the off-rate (koff) in assay [1] turned out to be 0.00582 s⁻¹; in assay [2] it was 0.00278 s⁻¹. Moreover, the kon came out at 146000 M⁻¹ s⁻¹ in assay [1] and 196000 M⁻¹ s⁻¹ in assay [2].

B15: VHH 18 - G4S - wild-type IgG1 Fc fusion (VHH-Fc fusion, SEQ ID NO: 159) (Fc fusion)
chain: B8 chain with E1Q, A14P, V40A, I69T
For the molecule B15, the Kd was 19.7 nM in assay [1], 8.36 nM in assay [2], 43.4 nM in assay [3] and 22.6 nM in assay [4]. Besides, the koff in assay [1] is 0.00174 s⁻¹; in assay [2], 0.000976 s⁻¹. For the same molecule, the kon is 88200 M⁻¹ s⁻¹ in assay [1] and 117000 M⁻¹ s⁻¹ in assay [2].

B16: VHH 19 - G4S - wild-type IgG1 Fc fusion (VHH-Fc fusion, SEQ ID NO: 160) (Fc fusion)
chain: B8 chain with E1Q, A14P, V40A, T56G, D57V, R59L, I64V, I69T, P88S
Turning to B16, the equilibrium dissociation constant (Kd) turned out to be 28.1 nM in assay [1], 12.8 nM in assay [2], 60.6 nM in assay [3] and 33.6 nM in assay [4]. Moreover, the koff was found to be 0.00223 s⁻¹ in assay [1] and 0.00132 s⁻¹ in assay [2]. For the same molecule, the kon in assay [1] came to 79300 M⁻¹ s⁻¹; in assay [2] it was 103000 M⁻¹ s⁻¹.

B17: VHH 15 - G4S - wild-type IgG1 Fc fusion (VHH-Fc fusion, SEQ ID NO: 156) (Fc fusion)
chain: B14 chain with D16G, R19T, R43K, E44G, G54S, E62D, T85S
In the case of B17, the Kd stood at 55.1 nM in assay [1], 30.6 nM in assay [2], 70.7 nM in assay [3] and 37.9 nM in assay [4]. Besides, the results for the koff in assay [1] and in assay [2] were 0.00411 s⁻¹ and 0.00228 s⁻¹, respectively. Besides, the on-rate (kon) was 74600 M⁻¹ s⁻¹ in assay [1] and 74400 M⁻¹ s⁻¹ in assay [2].
